Data from paper PMC10791543 (Science signaling, 2023).

Target: GST-mDia1-RBD (mouse, UniProt O08808 69-451)
Test: other fluorescence titration

B1: recombinant RHOA^L57V (natural protein)
chain: not shown
B1 gave a Kd of 181 ± 27 nM.
